Assay results reported in ChEMBL document CHEMBL4888484, “Replenishing the malaria drug discovery pipeline: Screening and hit evaluation of the MMV Hit Generation Library 1 (HGL1) against asexual blood stage Plasmodium falciparum ,using a nano luciferase reporter read-out” (2022).
Hit rate of the full screen: of about 150,000 compounds, about 540 (0.36%) showed an effect of 50% or more. The list shows a part of the results.

The molecules below were run on Plasmodium falciparum (assay: Primary screen in NF54 nanoGlo assay, in single point, at 2uM, 72h; a lower Z score goes with more inhibition). Conditions: timepoint 72 hour.
Assay type: functional, Erythrocyte
With `CN(C)CCc1ccc(NCC(C)(C)CCC#N)cc1` the “% Inhibition” value was 5% and the Z score was -0.49. In the case of `O=S(=O)(c1ccc(Br)cc1)N1CCN2CCC1CC2`, the “% Inhibition” value is reported as -7% and the Z score is reported as 1.4. In the case of `Cc1ccc(CCNCC(F)(F)F)cc1`, the “% Inhibition” value is reported as -6% and the Z score is reported as 0.64. With `Cc1ccc(C(=O)N2c3ccc(C)cc3[C@@H]3CN(C)CC[C@@H]32)cc1` the “% Inhibition” value was 1% and the Z score was -0.13. For `O=C(c1ccc(C(F)(F)F)cc1)[C@H]1CCCN(Cc2ccoc2)C1`, the “% Inhibition” value was -3% and the Z score was 0.51. With `Cc1cc(Br)oc1C(=O)N1CCO[C@H]2CNC[C@H]21` the “% Inhibition” value was -13% and the Z score was 1.81. With `O=C(c1ccccc1)c1cc(Cl)ccc1NC(=O)C1CCN(C(=O)c2ccco2)CC1` the “% Inhibition” value was 1% and the Z score was -0.14. In the case of `CN1C[C@@H]2CCCN(S(=O)(=O)c3ccco3)[C@@H]2C1`, the “% Inhibition” value is reported as 8% and the Z score is reported as -1.07. In the case of `Cc1ccc([C@H]2CN(C(=O)CN3CCOC3=O)[C@@H]3C4CCN(CC4)[C@H]23)cc1`, the “% Inhibition” value is reported as 4% and the Z score is reported as -0.74. With `CCCc1nn(C[C@H](O)c2cccc(Cl)c2)c(=O)o1` the “% Inhibition” value was -3% and the Z score was 0.29. With `CN1CCCc2cc(C(=O)N3CCC4(CC3)OCCO4)sc21` the “% Inhibition” value was -10% and the Z score was 1.84. `CC[C@@H](Cc1ccco1)NCc1ncc[nH]1` was tested, and the “% Inhibition” value was 4% and the Z score was -0.44. For `N#Cc1ccc(N2CCn3c(nnc3C(F)(F)F)C2)cc1Cl`, the “% Inhibition” value was -6% and the Z score was 0.48. `CN(Cc1cccnc1)C[C@@H]1CC=CCC1` was tested, and the “% Inhibition” value was 0% and the Z score was 0. `COc1ccc(CCN2C(=O)NC(=O)C3(Cc4c(Cl)cccc4N4CCCC43)C2=O)cc1OC` (centres undefined) was tested, and the “% Inhibition” value was -11% and the Z score was 1.39. For `COc1ccccc1Cn1cc(C(=O)NCCC(C)C)c(=O)c(C(=O)N(C)CCc2ccccn2)c1`, the “% Inhibition” value was 0% and the Z score was -0.06. `Cc1ccc2cc(CN3CCN4CCC[C@H]4C3)c(=O)[nH]c2c1` was tested, and the “% Inhibition” value was -1% and the Z score was 0.25. `COc1ccc(OC)c(-c2c(C#N)c(N)nc3c2[C@@H]2CC[C@H](C3)N2)c1` was tested, and the “% Inhibition” value was 7% and the Z score was -0.84. With `CCCN1C[C@@H]2CC[C@H]1CN(C(=O)Cc1cccc(OC)c1OC)C2` the “% Inhibition” value was -12% and the Z score was 2.11. In the case of `CN1CC2CCC(C1)N2c1ccc(S(C)(=O)=O)cn1`, the “% Inhibition” value is reported as -7% and the Z score is reported as 1.03. For `CC1(C)C[C@H](O)c2cc(NCC(=O)N3CCC4(CC3)OCCO4)ccc21`, the “% Inhibition” value was -9% and the Z score was 1.05. `C[C@@H](Cc1ccccc1Br)NC(=O)NCC1(CO)CC1` was tested, and the “% Inhibition” value was -4% and the Z score was 0.39. For `CC(N)C(O)c1ccc(Br)cc1` (centres undefined), the “% Inhibition” value was -3% and the Z score was 0.37. `Cc1ccc(C[C@H](C)N(C)CCCC(=O)O)cc1` was tested, and the “% Inhibition” value was 7% and the Z score was -1.27. For `O=c1ccc(-c2ccc(Cl)cc2)c2n1C[C@H]1C[C@@H]2CN(S(=O)(=O)c2ccccc2)C1`, the “% Inhibition” value was -5% and the Z score was 0.87. `O=C(Cc1cccc2ccccc12)N1CC[C@H](N2CCc3ccccc3C2)C1` was tested, and the “% Inhibition” value was -8% and the Z score was 1.57. In the case of `Cc1ccccc1OCC(=O)N1CCCN([C@H]2CCN(Cc3ccc(F)cc3)C2=O)CC1`, the “% Inhibition” value is reported as 11% and the Z score is reported as -1.47. In the case of `Cc1nc(O)cc(CN(C)CCc2ccccc2)n1`, the “% Inhibition” value is reported as -7% and the Z score is reported as 1. In the case of `CC(=O)C(=O)N1C[C@H](c2ccccc2)[C@@H]2[C@H]1C1CCN2CC1`, the “% Inhibition” value is reported as 3% and the Z score is reported as -0.4. `Cn1cc(C(=O)N2CC[C@](C)(O)[C@@H](O)C2)c2ccccc21` was tested, and the “% Inhibition” value was 1% and the Z score was -0.2. In the case of `CC[C@@H](Cn1ccnc1)NCc1ccc(OC)nc1`, the “% Inhibition” value is reported as -3% and the Z score is reported as 0.64. In the case of `CC(C)C(O)CCNC1CCN(CC(F)(F)F)C1` (centres undefined), the “% Inhibition” value is reported as -7% and the Z score is reported as 0.94. For `C[C@H](NCCc1c[nH]c2ccccc12)c1c[nH]c(=O)n(C)c1=O`, the “% Inhibition” value was -8% and the Z score was 1.31. With `CC[C@H](C)Oc1cccc2c1cc(C(=O)N1CCC3(CC1)OCCO3)n2Cc1ccccc1` the “% Inhibition” value was -2% and the Z score was 0.46. `O=C(c1cn(Cc2c(F)cccc2Cl)c2ccccc12)C1CCCCC1` was tested, and the “% Inhibition” value was -11% and the Z score was 1.34. `Cc1cnn(C[C@H](C)NCc2cn3ccccc3n2)c1` was tested, and the “% Inhibition” value was -12% and the Z score was 1.32. `N#Cc1ccc(NC(CO)CO)cc1Cl` was tested, and the “% Inhibition” value was 13% and the Z score was -1.36. For `COc1cccc2c1OC[C@@]1(C(=O)O)CN(C(=O)c3cc(C)ccc3C)C[C@@H]21`, the “% Inhibition” value was 2% and the Z score was -0.25. For `COc1cc2c3c(c1O)-c1c(ccc(OC)c1OC)C[C@@H]3N(C)CC2` [CORYDINE], the “% Inhibition” value was -4% and the Z score was 0.52. For `CCC(=O)N1CCc2cc(Br)c(S(=O)(=O)CCC(=O)N3CCC4(CC3)OCCO4)cc21`, the “% Inhibition” value was 7% and the Z score was -0.69. For `Oc1ccc2c(c1)CCC(NC1CCC1C1CCC1)C2` (centres undefined), the “% Inhibition” value was -4% and the Z score was 0.78. In the case of `C=CCOc1ccccc1-c1c(C#N)c(N)nc2c1N1CCC2CC1`, the “% Inhibition” value is reported as -3% and the Z score is reported as 0.63.
